Test results from the supplement of paper PMC11417369.
± gives the standard deviation of the averaged measurements. The list shows a part of the results.

Each sequence was assayed on PfAP2-I AP2 domain 3 (GST-tagged) (assay: gcPBM binding intensity (ln(normalized median fluorescence intensity)); higher = stronger DNA binding).
In short: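 DNA-binding domains from P. falciparum, fused to GST and produced in E. coli, were put on an Agilent 4 × 180k double-stranded probe array for 1 h in 1× PBS holding 1% milk, 0.2 mg/ml BSA, 0.5% salmon testes DNA and 0.03% Triton X-100. Probes were primer-extended, 36 bp long and drawn from intergenic genomic regions, with negative controls included. After Alexa488 anti-GST antibody detection and a 488 nm scan, binding intensity was set as the highest Masliner-normalised natural-log median intensity across replicate spots of either probe orientation.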

Compared with “AATTATTCATAAAATGCATGTACATGGTTTAATATT [TGCATGCA_site87]”, “ATACATGTTTTATGTGCACACAAAGTTGTTATGAGG [CACACA_site4032]” is higher in “gcPBM binding intensity (ln)” value: 7.93 ± 0.59 for the first, 10.4 ± 0.11 for the second.

Going from “TCGTAAACTTTATGCACACACATATACATATTTCAT [CACACA_site739]” to “ATAATACACAAGCACACACACACACGGATATTTATA [CACACA_site6714]”, the “gcPBM binding intensity (ln)” value falls from 10.2 ± 0.53 to 8.21 ± 0.47.

“ATAATTATATTTTATTCACACATCGTTATATAGTAA [CACACA_site4743]” and “ATTATGGATACATAAACACACATATATATAAAAAAA [CACACA_site4303]” are within error of each other in “gcPBM binding intensity (ln)” value: 7.88 ± 0.49 for the first, 7.86 ± 0.71 for the second.

“ACATGATAAATAGTCACACATAAATATAATATATAT [CACACA_site5207]” and “ACTTTTTTTTTTTTTTTAGATTACATAAATATAAAT [CACACA_negctrl_site139]” are within error of each other in “gcPBM binding intensity (ln)” value: 7.75 ± 0.54 for the first, 7.93 ± 0.33 for the second.

Going from “TATGTATATTTAAATGCATGTGATTATTTTTGACTT [TGCATGCA_site568]” to TTATAAATTTAAAAAGTGCATAATAATAACAAAAAG, the “gcPBM binding intensity (ln)” value rises from 7.78 ± 0.45 to 11.2 ± 0.67.

“TATTTTTATTTTCCTTCACACATTTTTTATATTTTT [CACACA_site5830]” and “AAAAAAAAAAAAAAAACACACATATAGATTATTGTA [CACACA_site7797]” are within error of each other in “gcPBM binding intensity (ln)” value: 7.88 ± 0.54 for the first, 8.6 ± 0.5 for the second.

“TTTTAATTTATCGACACACGCATGAATAGAAATTAG [CACACA_site3361]” and “AACACAATAAAAATTAAAAATGTTAAGTAAATATAA [GTGCAC_negctrl_site60]” are within error of each other in “gcPBM binding intensity (ln)” value: 7.63 ± 0.57 for the first, 7.45 ± 0.6 for the second.

“TTATAATTTAATAAATGTACATAAATAATATACATA [XGTACX_site7271]” and “AGACAATATCTTATTTGTACATATGTATTCCTCATA [XGTACX_site5757]” are within error of each other in “gcPBM binding intensity (ln)” value: 7.55 ± 0.16 for the first, 7.88 ± 0.63 for the second.

Going from “ATGTTATATTTTTTTATACACACTGGGATATATAAA [CACACA_site6244]” to “TTCATTGTGTTAACGGTGCATATATTTTTTCACCGT [GTGCAC_site9464]”, the “gcPBM binding intensity (ln)” value rises from 7.93 ± 0.59 to 10.4 ± 0.47.

“TAAAAATATAAAAAGTGTACAATATATAAATTAATA [XGTACX_site1606]” and “ATATTAAAAAAATATGCATGCAAATATTATTTTGTA [TGCATGCA_site191]” are within error of each other in “gcPBM binding intensity (ln)” value: 7.95 ± 0.5 for the first, 7.82 ± 0.59 for the second.

“TATTTAATTAATATAATATTAAACGGAAAAGATAAA [TGCATGCA_negctrl_site148]” and “TTTTTCTTTTTTTTTTTAATAATATATAACAAATTT [CACACA_negctrl_site1724]” are within error of each other in “gcPBM binding intensity (ln)” value: 7.89 ± 0.59 for the first, 7.59 ± 0.64 for the second.

Compared with “AATCAAATTTTCAAGTCGCACCAAACAAAAAAATGA [CACACA_negctrl_site1397]”, “TGCCATATATATATTAAATACATAATAATGAGCCTA [GTGCAC_negctrl_site10]” is lower in “gcPBM binding intensity (ln)” value: 8.51 ± 0.26 for the first, 7.63 ± 0.28 for the second.

Going from “ATAAACAAAAAAAAAAAATATATCAATATATATATA [CACACA_negctrl_site299]” to “AAAATATATAATTTTTAACACACAAAAAAAAAAAAA [CACACA_site9192]”, the “gcPBM binding intensity (ln)” value falls from 8.98 ± 0.085 to 8.05 ± 0.65.

First: AGTCATAAATTTATTTGTACATATAATATATATATA [XGTACX_site8489]
Second: GTTATACACATATATACACACATATGTAAATATATA [CACACA_site9080]
The “gcPBM binding intensity (ln)” value of the first is higher: 8.98 ± 0.057 for the first, 7.83 ± 0.35 for the second.

Compared with “CTAATATATGTATGCACACACAATATATACATATTT [CACACA_site3360]”, “GTCCTTACTAATTAATTTTAGGCCATATAGTTTGTC [XGTACX_negctrl_site199]” is lower in “gcPBM binding intensity (ln)” value: 8.68 ± 0.085 for the first, 8.03 ± 0.47 for the second.

“ATATTACAAATATAATGTACAAAATATAAATATGCA [XGTACX_site8106]” and “TTATAATCTATACATATATATGTATGTATGTCTCAA [CACACA_negctrl_site1702]” are within error of each other in “gcPBM binding intensity (ln)” value: 7.62 ± 0.3 for the first, 7.46 ± 0.52 for the second.

“AAATGCGTATATAACGCATGTATAAGAACATTTTTT [TGCATGCA_site225]” and “ACATCATTTTTATGTACACACACATATACGTTGAAT [CACACA_site5095]” are within error of each other in “gcPBM binding intensity (ln)” value: 7.59 ± 0.68 for the first, 8.24 ± 0.37 for the second.

Compared with “GAAGTATTATTAAAGCTGCACTTTTCTAAAATAAAC [GTGCAC_site9429]”, “CATTAATTTAATAAATGTACATAAAATATATATTAT [XGTACX_site8085]” is lower in “gcPBM binding intensity (ln)” value: 8.73 ± 0.28 for the first, 7.89 ± 0.36 for the second.

“TAAAATTTACAACACTGTACTTGAATTTATCTTTAA [XGTACX_site241]” and “GCAGTATGCGATCAGTGTACGAGTTATTTTATAAAA [XGTACX_site4764]” are within error of each other in “gcPBM binding intensity (ln)” value: 7.55 ± 0.5 for the first, 7.71 ± 0.39 for the second.

“AAAAAAAAAAAAAAAAGTACAAAAATATATATGCAT [XGTACX_site8392]” and “TATGCACAGAAACACACACACACAACCAAAAAATAA [CACACA_site5425]” are within error of each other in “gcPBM binding intensity (ln)” value: 8.44 ± 0.28 for the first, 8.33 ± 0.57 for the second.

Going from “TGTTATATATAAATTTGTACACATAAATATTTTTAC [XGTACX_site5873]” to “AATAAAAAAAAATGCACACATATATATATATATATA [CACACA_site2421]”, the “gcPBM binding intensity (ln)” value rises from 7.93 ± 0.44 to 9.67 ± 0.52.

“TTTTTATTTATATGTATACACACTTTAATTAAAAGT [CACACA_site2525]” and “CAGAATATATTCTATACATGCAATAGGAAATGTAGC [TGCATGCA_site110]” are within error of each other in “gcPBM binding intensity (ln)” value: 8.12 ± 0.73 for the first, 8.26 ± 0.81 for the second.
